# The whole screen tested about 410,000 compounds, of which about 6,400 (1.6%) were called active. The inconclusive results got no clear call from the source; some entries with a clear call stand among them for comparison. Calls come from the whole dose curve; as a rule, active = well fitted inhibition curve with a large enough effect; inconclusive = small, poorly fitted or top-dose-only effect; inactive = no such curve, though single readings can be large or run the other way. Potencies of inconclusive entries are left out as doubtful fits.
# Target: Glucagon-like peptide 1 receptor (Homo sapiens) (UniProt P43220)
# Experiment: qHTS of GLP-1 Receptor Inverse Agonists (Inhibition Mode); note: nearly all actives have a fitted effect of over 55% in size
# Settings: HEK293 GLP-1R CRE-luciferase, luminescence, 24 h, GLP-1R form is constitutively active; activity change, negative = inhibition: at 38.3 µM (top of the series) unless noted
# Procedure, shortened: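 HEK293 cells stably co-expressing constitutively active GLP-1R and a cAMP-responsive luciferase reporter were seeded in DMEM with 10% Nu serum, given compounds after 12 h, and incubated 24 h at 37 deg C. Luminescence was then read.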
# % is set by controls: 0 for no effect and ±100 for the full control effect; potency is the fitted concentration of half-maximal effect; tags give direction and shape of the fitted curve.
# Chain of UniProt P43220 (P43220 whole entry, looked up): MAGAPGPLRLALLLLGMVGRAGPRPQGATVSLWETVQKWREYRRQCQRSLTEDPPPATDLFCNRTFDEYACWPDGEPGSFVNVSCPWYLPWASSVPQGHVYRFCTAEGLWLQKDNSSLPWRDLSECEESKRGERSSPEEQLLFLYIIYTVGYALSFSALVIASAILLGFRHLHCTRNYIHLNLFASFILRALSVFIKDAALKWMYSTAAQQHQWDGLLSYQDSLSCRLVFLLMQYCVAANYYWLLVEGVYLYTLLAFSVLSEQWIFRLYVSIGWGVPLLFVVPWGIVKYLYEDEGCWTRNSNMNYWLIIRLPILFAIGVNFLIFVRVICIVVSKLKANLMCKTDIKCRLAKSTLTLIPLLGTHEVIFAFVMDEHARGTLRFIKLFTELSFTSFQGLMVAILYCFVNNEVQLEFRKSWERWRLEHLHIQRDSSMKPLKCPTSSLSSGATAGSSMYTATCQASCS
SMILES,Potency,"activity change, negative = inhibition"
Cc1nonc1C1CCCN1Cc1nc(-c2ccc(F)cc2F)oc1C (centres undefined),"inconclusive [inhibitor, partial curve, poor fit]",
O=C(Oc1cc2oc(=O)cc(-c3ccccc3)c2cc1Cl)C1CCCCC1,"inconclusive [inhibitor, partial curve, poor fit]",
OC1CCN(C(=S)Nc2ccc(Nc3ccccc3)cc2)CC1,"inconclusive [inhibitor, single point]",
COc1ccc(Cn2cccc(NC(=O)Nc3ccc(F)cc3)c2=O)cc1,"inconclusive [inhibitor, single point]",
CC(/C=C/c1ccc(O)cc1)=N/O,,inactive: 7.58%
C[C@H]1C=C(C(=O)NCc2nc3ccccc3[nH]2)O[C@@H](OCCCCO)C1,,inactive: 0.196%
COc1ccccc1Cc1c(-c2ccco2)nc2ccc(C)cn12,,inactive: 11.7%
CCc1nc2ccc(C(=O)Nc3cc(-c4ccccc4)ccc3OC)cn2c1N(CCN(C)C)CC1CC1,"inconclusive [inhibitor, partial curve, poor fit]",
Cc1ccc(NC(=O)CS(=O)Cc2nc(-c3ccc(C)cc3)oc2C)cc1 (centres undefined),"inconclusive [inhibitor, single point]",
CC(C)CC(=O)Nc1ccc(C(=O)Nc2cccc(O)c2)cc1,"inconclusive [inhibitor, single point]",
COc1cc(-c2noc(C)c2C#Cc2ccsc2)cc(OC)c1OC,"inconclusive [inhibitor, full curve, poor fit]",
COc1ccc(NC(=O)N(CCC(C)C)C(C)c2cccs2)c(OC)c1 (centres undefined),"inconclusive [inhibitor, single point]",
Cc1sc(NC(=O)C2CCCCC2C(=O)O)c(C(N)=O)c1-c1ccc(C(C)(C)C)cc1 (centres undefined),"inconclusive [inhibitor, partial curve, poor fit]",
COc1cccc(/C=N/NC(=O)c2c(C)nc3ccc(Cl)cn23)c1O,"inconclusive [inhibitor, full curve, poor fit]",
COc1ccc(C(=O)NCCSc2ccccc2C)cc1,"inconclusive [inhibitor, single point]",
Cc1cc(=O)[nH]c2nnc(SCC(=O)Nc3ccc(OC(F)(F)F)cc3)n12,,inactive: 7.37%
COc1cc(C2c3cc4c(cc3OC(C)(N3CCCC3)C2C)OCO4)cc(OC)c1OC (centres undefined),"inconclusive [inhibitor, full curve, poor fit]",
COc1ccc(CCNC(=O)c2c([S-])n(-c3ccc(C)cc3)c3cccc[n+]23)cc1,"inconclusive [inhibitor, single point]",
O=C1C2CCCN2C(c2ccc(F)cc2)N1c1cccc(Cl)c1 (centres undefined),"inconclusive [inhibitor, partial curve, poor fit]",
CC1CCCN(S(=O)(=O)c2ccc(NC(=O)c3cccc(-n4cnnn4)c3)cc2)C1 (centres undefined),"inconclusive [inhibitor, single point]",
O=C(NC(=S)N1CCOCC1)c1cc2ccccc2o1,"inconclusive [inhibitor, partial curve, poor fit]",
CCOc1ccc(-n2c(SCC(=O)N3CCc4ccccc43)nc3c([nH]c4ccccc43)c2=O)cc1,,inactive: -2.49%

SMILES,Potency,"activity change, negative = inhibition"
O=C(Nc1ccc2c(c1)OCO2)c1ccc(N2CCCC2)c([N+](=O)[O-])c1,"inconclusive [inhibitor, single point]",
COc1cccc2c1ncc1c(-c3ccc(C)cc3)nn(-c3cccc([N+](=O)[O-])c3)c12,,inactive: 16.1%
C(=N\Nc1nc(N2CCCCCC2)nc(N2CCCCCC2)n1)/c1ccccc1,"inconclusive [inhibitor, partial curve, poor fit]",
C[C@H](CO)N1C[C@H](C)[C@@H](CN(C)C(=O)Nc2ccc(C(F)(F)F)cc2)Oc2ccc(NS(=O)(=O)c3cccs3)cc2C1=O,"inconclusive [inhibitor, single point]",
Cc1cc(NC(=O)c2c(Cl)cnn2C)no1,,inactive: 10.4%
O=c1cc(O)c2c(=O)n(C3CCCCC3)c3ccccc3c2o1,"inconclusive [inhibitor, single point]",
CCCCn1c(SCC(=O)Nc2sc3c(c2C(N)=O)CCC3)nnc1-c1ccccc1,"inconclusive [inhibitor, partial curve]",
CCCOc1ccc(F)cc1-c1cc(C(=O)NCc2ccccc2)[nH]n1,"inconclusive [inhibitor, single point]",
CCn1c(SCC(=O)NCc2cccs2)nc2c1c(=O)n(C)c(=O)n2C,"inconclusive [inhibitor, partial curve, poor fit]",
COc1ccc(CNc2nc3ccccc3n2Cc2ccccc2)cc1OC,"inconclusive [inhibitor, single point]",
Cc1cccc(N2CCN(C(=S)Nc3ccc4nc(N5CCN(C)CC5)cc(C)c4c3)CC2C)c1 (centres undefined),"inconclusive [inhibitor, partial curve, poor fit]",
COc1ccc(C2C(C(N)=O)=C(C)Nc3nc(SCc4ccccc4Cl)nn32)cc1OC (centres undefined),,inactive: 14%
Cc1ccccc1NC(=O)CN1CCOCC1,,inactive: 13.8%
CCCCOc1cc(NCc2ccccc2)c2ncn(C(C)C)c2c1,"inconclusive [inhibitor, single point]",
COC(=O)Cc1[nH]n(-c2ccccc2)c(=O)c1C=Nc1ccc(C)cc1,"inconclusive [inhibitor, full curve, poor fit]",
Cc1ccc2nc(N3CCC(C(=O)N4CCN(c5cccc(C)c5C)CC4)CC3)[nH]c2c1,"inconclusive [inhibitor, partial curve, poor fit]",
O=C1/C(=C/c2cccc(Cl)c2)SC(=S)N1CCC(=O)N1CCCCC1CCO (centres undefined),"inconclusive [inhibitor, partial curve, poor fit]",
COc1ccccc1CCNC(=O)c1ccc(NC(=O)CC2SC(N3CCCC3)=NC2=O)cc1 (centres undefined),,inactive: 3.9%
Cc1cc(N2CC(C(=O)NCc3cccs3)CC2=O)ccc1C(C)C (centres undefined),"inconclusive [inhibitor, partial curve, poor fit]",
FC(F)(F)c1cccc(-c2nc3nc(Cl)c(Cl)nc3[nH]2)c1,"inconclusive [inhibitor, full curve, poor fit]",
COc1ccc(-n2c3c(cc(-c4nc(-c5ccc(C)cc5)cs4)c2=O)C(=O)CC(C)(C)C3)cc1,,inactive: -6.58%
COc1ccc(NC(=O)Nc2nc3ccccc3s2)cc1,"inconclusive [inhibitor, partial curve, poor fit]",

SMILES,Potency,"activity change, negative = inhibition"
COc1ccc(-n2nc([N+](=O)[O-])c(=NCc3cccnc3)n2O)cc1,,inactive: 49%
COc1cccc(CNc2nc(NCc3ccccc3OC)nc3ccsc23)c1,"inconclusive [inhibitor, single point]",
CCc1ccc(-c2nc(CN3CCC(C(=O)NCCc4ccc(OC)c(OC)c4)CC3)c(C)o2)cc1,"inconclusive [inhibitor, single point]",
CC(C)N(C(=O)c1ccc2nc(-c3ccccc3)c(-c3ccccc3)nc2c1)C(C)C,"inconclusive [inhibitor, partial curve, poor fit]",
O=C(Cn1cc(C(F)(F)F)ccc1=O)N1CCN(S(=O)(=O)c2ccccc2)CC1,,inactive: -7.71%
Cc1ccc(CN2CCCCC2C(=O)Nc2ccc(Oc3cccnc3)cc2)o1 (centres undefined),"inconclusive [inhibitor, full curve, poor fit]",
CCOc1ccc(CN(C)CC(=O)NCc2ccccc2Cl)cc1,"inconclusive [inhibitor, partial curve, poor fit]",
Fc1ccc(Br)cc1SCCc1ccncc1,,inconclusive: -35.8% [inhibitor]
O=C(CN1CCN(S(=O)(=O)c2ccc(Cl)c(Cl)c2)CC1)N1CCCCC1,"inconclusive [inhibitor, partial curve, poor fit]",
O=C(CSc1nnc(-c2ccc(F)cc2)o1)NC1CCCC1,"inconclusive [inhibitor, full curve, poor fit]",
CCN1CCCC1CNC(=O)Cn1cccc1C(=O)c1ccccc1C (centres undefined),"inconclusive [inhibitor, partial curve]",
CCN1CCSc2ccc(C(=O)NCc3ccccc3F)cc21,"inconclusive [inhibitor, single point]",
CN(C)CCN(C)C1CN(Cc2ccc(F)cc2)S(=O)(=O)C1 (centres undefined),"inconclusive [inhibitor, full curve]",
COc1ccc(C(=O)c2cn(Cc3ccccc3F)c3cc4c(cc3c2=O)OCO4)cc1,,inactive: 0.0771%
CC1CCN(S(=O)(=O)c2ccc3c(c2)oc(=O)n3CC(=O)NCc2ccc3c(c2)OCO3)CC1,"inconclusive [inhibitor, partial curve]",
CCC(=O)Nc1ccc(C(=O)NNC(=O)CCCCC(=O)NNC(=O)c2ccc(NC(=O)CC)cc2)cc1,,inactive: -16.7%
CCCC(=O)NC(Nc1cccc(C(F)(F)F)c1)C(Cl)(Cl)Cl (centres undefined),"inconclusive [inhibitor, single point]",
CCc1nc2c(c(=O)[nH]1)C1(CCCC1)Cc1ccccc1-2,,inactive: -3.03%
CN(Cc1ccccc1)C(=O)COC(=O)c1ccc(Cl)cc1N,"inconclusive [inhibitor, single point]",
O=C(c1ccc(N2CCN(C(=O)c3ccccc3)CC2)cc1)c1cccc(F)c1,"inconclusive [inhibitor, single point]",
